Some of the results follow. At the low end of the ranking the order means little.

In this assay the target is SIX1-Q177R homeodomain (UniProt Q15475). As to the kind of experiment: universal protein binding microarray. To be noted: Universal all-10-mer PBM (8x60K, AMADID 030236), 300 nM GST-tagged protein, Alexa Fluor 488 anti-GST; buffer, salt, pH and temperature not stated; high values mean tight binding; most listed sequences are background and not binding sites; double strand, one strand shown.
ACAACGTG: the binding signal worked out at 0.0718 E-score.

With CTTCAAGC, the binding signal was -0.24 E-score.

In the case of AAAACGGG, the binding signal came to 0.0427 E-score.

As to ATGTACAG, the binding signal was -0.0691 E-score.

Consider ACTGTAAA, for which the binding signal is -0.0356 E-score.

With GAGACTGC, the binding signal is -0.0836 E-score.

For CTTACAAA, the binding signal is -0.0876 E-score.

For GCATCGCA, the binding signal was -0.284 E-score.

With GCCCTAGC, the binding signal is -0.217 E-score.

On to AGTTCTGA, for which the binding signal was -0.184 E-score.

On to CGCCGTGC, for which the binding signal came out at 0.188 E-score.

As for GGCACCGA, the binding signal is 0.175 E-score.

In the case of GAACACAC, the binding signal turned out to be 0.319 E-score.

Consider ACATACTA, for which the binding signal came out at 0.0758 E-score.

Regarding AATGGGGT, the binding signal is 0.246 E-score.

As for CGCTTGAA, the binding signal was -0.00516 E-score.

As to AGCTCGCC, the binding signal was -0.0696 E-score.

In the case of CCTTCTAC, the binding signal is -0.0353 E-score.

For the sequence CGACTTAC, the binding signal was determined as 0.0339 E-score.

GCAAACCA: the binding signal stood at 0.0633 E-score.

On to CAAGACCA, for which the binding signal is -0.107 E-score.

In the case of CAACTTGG, the binding signal stood at 0.0289 E-score.

With CTATTAAA, the binding signal was -0.0121 E-score.

Take ATGTGGAA: the binding signal was -0.0159 E-score.

Take CCGCCTAG: the binding signal was -0.122 E-score.

Regarding GGCACCAA, the binding signal is 0.134 E-score.

With ATTTAATA, the binding signal is -0.019 E-score.

On to ATCTGGGA, for which the binding signal is -0.111 E-score.

Take CTCATCAC: the binding signal amounted to 0.126 E-score.

Regarding AAAAGCTA, the binding signal was -0.35 E-score.

With CTCAGTAA, the binding signal is -0.231 E-score.

As to CTTGCGTA, the binding signal is -0.0466 E-score.

For AGTTAGAT, the binding signal was 0.0786 E-score.

Regarding GGGCTGAA, the binding signal was 0.032 E-score.

On to AAATCGCA, for which the binding signal was -0.218 E-score.

CCCTTCGC: the binding signal is 0.083 E-score.

On to ACGGGAAT, for which the binding signal was found to be 0.099 E-score.

In the case of GCCGTTGA, the binding signal was -0.143 E-score.

Turning to GTGTTGCA, the binding signal was 0.385 E-score.

As to ATCCCTAC, the binding signal was 0.0362 E-score.

Consider GTTTGAAA, for which the binding signal was -0.0581 E-score.

As for AACGTCAA, the binding signal is -0.309 E-score.

With GCAAAGTA, the binding signal was -0.176 E-score.

Take AGGGCAGG: the binding signal worked out at 0.0335 E-score.

Regarding CGTGTGAA, the binding signal came to 0.302 E-score.

With ATGTGTAC, the binding signal was 0.23 E-score.

Take CTGAACTC: the binding signal was -0.0496 E-score.

In the case of ACGCCGAA, the binding signal is 0.105 E-score.

In the case of AAAAGAAA, the binding signal was -0.0936 E-score.

For GGAGCTAC, the binding signal was -0.0785 E-score.

On to TAGGTCCA, for which the binding signal is -0.159 E-score.

On to TGTCCTAA, for which the binding signal was 0.241 E-score.

Regarding AGCAACCG, the binding signal is -0.202 E-score.

Consider AGTAATGC, for which the binding signal is -0.13 E-score.

For the sequence CTCGGGTC, the binding signal was found to be 0.155 E-score.

Turning to GGCAAGGA, the binding signal is -0.0867 E-score.

CCATCAAC: the binding signal is 0.0552 E-score.

Regarding CTCCGATC, the binding signal was found to be 0.0599 E-score.

With CTCTAATA, the binding signal stood at 0.0502 E-score.

Consider ACCGGCCA, for which the binding signal was 0.00128 E-score.

Consider CGAGTAGC, for which the binding signal came out at 0.00077 E-score.

Consider CACCATGA, for which the binding signal came to 0.289 E-score.

Regarding CCCCTGGA, the binding signal is -0.0143 E-score.

For the sequence ATCCCATA, the binding signal was 0.0284 E-score.

Take GAGATGAA: the binding signal stood at 0.0651 E-score.

For AAAGCGCG, the binding signal was 0.0238 E-score.

As for AGATTCAC, the binding signal is -0.095 E-score.

For AAAACATG, the binding signal is -0.256 E-score.

As for GCGTCGGA, the binding signal is -0.0425 E-score.

As to ACGCTCCC, the binding signal is -0.066 E-score.

As to ATCGTGTC, the binding signal amounted to 0.413 E-score.

Turning to TAGACGCA, the binding signal is -0.099 E-score.

For the sequence AACCACTC, the binding signal was 0.0351 E-score.

In the case of TAGGAGGA, the binding signal is -0.0612 E-score.

In the case of AACGTCAC, the binding signal is -0.0625 E-score.

Consider TACCTTCA, for which the binding signal was -0.0332 E-score.

In the case of CGACTTTA, the binding signal was -0.0785 E-score.

Consider GACCTGAA, for which the binding signal was -0.0819 E-score.

In the case of AAATCCTC, the binding signal was -0.0469 E-score.

On to AGATAAAT, for which the binding signal was -0.205 E-score.

With ATAATCGC, the binding signal is -0.0267 E-score.

As to CGGAACGA, the binding signal was 0.0574 E-score.

In the case of GTAGTGGA, the binding signal is -0.069 E-score.

For the sequence CTAGTGTA, the binding signal came to 0.391 E-score.

In the case of CGCGCTTA, the binding signal is 0.0199 E-score.

Take AGATAGGA: the binding signal was -0.19 E-score.

For CGTAATCA, the binding signal is -0.0128 E-score.

Regarding GAGTGGAC, the binding signal is 0.00551 E-score.

On to CTACTCAC, for which the binding signal was found to be 0.0339 E-score.

For the sequence GGTTGGTA, the binding signal was determined as 0.0551 E-score.

AGGGGTGG: the binding signal amounted to 0.083 E-score.

For the sequence CAGTCTGC, the binding signal was -0.155 E-score.

As for GCCCTCCA, the binding signal is -0.0552 E-score.

Turning to ATAGGAGA, the binding signal was 0.0596 E-score.

The record behind these values is paper PMC10668032.
